These results are taken from PMC4336329 (PLoS ONE, 2015).

Out of some 310,000 compounds screened, about 14,000 (4.5%) showed an effect of 50% or more. The effect is printed as a negative number. The list shows a part of the results.
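Further: peak tail current of the secondary pulse compared with the same well before compound.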

human ether-à-go-go-related gene (hERG) potassium channel, sequence (Q12809 whole entry, looked up): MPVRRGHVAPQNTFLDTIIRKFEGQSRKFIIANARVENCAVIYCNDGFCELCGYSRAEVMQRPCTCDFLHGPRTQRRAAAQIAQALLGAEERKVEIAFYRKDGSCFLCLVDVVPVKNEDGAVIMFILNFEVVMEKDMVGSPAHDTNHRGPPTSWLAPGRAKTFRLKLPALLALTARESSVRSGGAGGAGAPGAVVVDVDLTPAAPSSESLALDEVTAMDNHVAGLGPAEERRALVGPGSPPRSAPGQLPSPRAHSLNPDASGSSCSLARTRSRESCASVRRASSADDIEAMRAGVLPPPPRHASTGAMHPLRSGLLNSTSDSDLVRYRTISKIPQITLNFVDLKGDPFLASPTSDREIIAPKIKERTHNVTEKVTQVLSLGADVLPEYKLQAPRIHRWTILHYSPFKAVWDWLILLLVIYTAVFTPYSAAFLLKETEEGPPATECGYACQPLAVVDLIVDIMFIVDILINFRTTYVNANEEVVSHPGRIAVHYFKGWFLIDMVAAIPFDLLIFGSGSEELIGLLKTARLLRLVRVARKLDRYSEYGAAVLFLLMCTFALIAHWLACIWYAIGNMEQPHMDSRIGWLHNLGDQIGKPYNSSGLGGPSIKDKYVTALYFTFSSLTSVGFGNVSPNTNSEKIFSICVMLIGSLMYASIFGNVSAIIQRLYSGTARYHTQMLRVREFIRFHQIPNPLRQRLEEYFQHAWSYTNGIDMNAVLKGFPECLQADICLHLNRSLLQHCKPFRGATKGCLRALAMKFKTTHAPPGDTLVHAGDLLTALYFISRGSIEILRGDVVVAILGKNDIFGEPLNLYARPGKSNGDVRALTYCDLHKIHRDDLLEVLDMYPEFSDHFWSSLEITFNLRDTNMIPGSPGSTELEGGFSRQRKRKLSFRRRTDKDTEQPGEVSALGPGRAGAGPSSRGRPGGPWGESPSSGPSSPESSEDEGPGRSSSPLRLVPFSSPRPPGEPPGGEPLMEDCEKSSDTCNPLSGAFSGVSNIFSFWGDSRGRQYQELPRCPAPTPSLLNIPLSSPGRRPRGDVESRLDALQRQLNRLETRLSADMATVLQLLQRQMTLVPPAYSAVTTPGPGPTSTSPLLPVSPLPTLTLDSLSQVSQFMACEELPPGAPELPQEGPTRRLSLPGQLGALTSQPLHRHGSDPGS

This experiment has as its target human ether-à-go-go-related gene (hERG) potassium channel (human, UniProt Q12809). Description: primary screen, population patch clamp on CHO cells stably expressing hERG.
On to `O=C(Nc1ccc2c(c1)OCO2)C1CC(c2c(F)cccc2Cl)=NO1` (centres unmarked), for which the “hERG current change (%, negative = inhibition) at 10uM” value is given as -11.4%.

Consider `COc1cc(C(=O)Nc2ccc(NC(=O)c3ccccc3)nc2)cc(OC)c1OC`, for which the “hERG current change (%, negative = inhibition) at 10uM” value stood at 9.58%.

For the compound `Cc1ccc(S(=O)(=O)NCC(C)n2cncn2)cc1C` (centres unmarked), the “hERG current change (%, negative = inhibition) at 10uM” value is on record as 21.1%.

Turning to `C[C@H]1C=C(C(=O)N2CCN(Cc3ccc4c(c3)OCO4)CC2)O[C@@H](OCc2ccc(CO)cc2)C1`, the “hERG current change (%, negative = inhibition) at 10uM” value was -70.7%.

Regarding `CCOC(=O)N1CCC(N2C(=O)c3ccc(C(=O)NCc4ccc(F)cc4)cc3C2=O)CC1`, the “hERG current change (%, negative = inhibition) at 10uM” value is recorded as -17.4%.

In the case of `CC1CC(=O)Nc2ccccc2N1S(=O)(=O)c1cccc(Cl)c1` (centres unmarked), the “hERG current change (%, negative = inhibition) at 10uM” value came out at 3.6%.

Regarding `N#Cc1nc(COc2cccc(Cl)c2)oc1NCc1ccncc1`, the “hERG current change (%, negative = inhibition) at 10uM” value was -73.7%.

`O=c1[nH]c(=O)n(-c2cccc3ccccc23)c(O)c1C=NCc1ccc2c(c1)OCO2`: the “hERG current change (%, negative = inhibition) at 10uM” value is reported as -11.3%.

Turning to `Cc1onc(-c2ccccc2)c1C(=O)OCC(=O)NCc1ccc(F)cc1`, the “hERG current change (%, negative = inhibition) at 10uM” value was 6.47%.

`COc1cc2c(cc1OC)C(Cc1ccc(O)cc1)NCC2` (centres unmarked): the “hERG current change (%, negative = inhibition) at 10uM” value is listed as -8.71%.

Consider `COc1cccc(/C=C2/SC(=O)N(C)C2=O)c1OCc1ccc(C(=O)O)cc1`, for which the “hERG current change (%, negative = inhibition) at 10uM” value is recorded as 15.6%.

As for `Cc1nc2scc(C)n2c(=O)c1S(=O)(=O)N1CCN(c2ccc([N+](=O)[O-])cc2)CC1`, the “hERG current change (%, negative = inhibition) at 10uM” value was -12%.

On to `CCOC(=O)C1=C(C)NC(=O)NC1c1cn(-c2ccccc2)nc1-c1cccs1` (centres unmarked), for which the “hERG current change (%, negative = inhibition) at 10uM” value was -6.19%.

On to `COC(=O)c1ccc(NC(=O)c2ccc(OC(C)=O)c(OC)c2)cc1`, for which the “hERG current change (%, negative = inhibition) at 10uM” value is given as 4.08%.

In the case of `Cc1ccc2ccccc2c1COC(=O)c1nonc1N`, the “hERG current change (%, negative = inhibition) at 10uM” value is listed as -7.51%.

Turning to `COc1cccc(N2CCN(C(=O)CC(C)(C)CC3=NS(=O)(=O)c4ccccc4N3)CC2)c1`, the “hERG current change (%, negative = inhibition) at 10uM” value is recorded as -6.09%.

Regarding `COC(=O)N/N=C\C=C\c1ccc2c(c1)OCO2`, the “hERG current change (%, negative = inhibition) at 10uM” value is -4.5%.

In the case of `CCCc1nc2ccccc2c(C(=O)O)c1CC`, the “hERG current change (%, negative = inhibition) at 10uM” value is listed as 1.82%.

On to `CNC(=O)C(C)NS(=O)(=O)c1ccc(F)cc1` (centres unmarked), for which the “hERG current change (%, negative = inhibition) at 10uM” value was 10.9%.

`CN(Cc1ccccc1F)C(=O)c1ccc2c(=O)n3c(nc2c1)CCC3`: the “hERG current change (%, negative = inhibition) at 10uM” value was found to be 10%.

`O=C(NC1CC1)c1ccc(CS(=O)c2ccc(Br)cc2)o1` (centres unmarked): the “hERG current change (%, negative = inhibition) at 10uM” value came to 4.06%.

Take `COc1cc(/C=C2\S/C(=N/S(=O)(=O)Cc3ccccc3)NC2=O)c([N+](=O)[O-])cc1OC`: the “hERG current change (%, negative = inhibition) at 10uM” value is on record as 7.79%.

With `N#CCC(=O)N/N=C/c1cc([N+](=O)[O-])ccc1N1CCOCC1`, the “hERG current change (%, negative = inhibition) at 10uM” value is listed as -37.3%.

For `CCOC(=O)N1CCN(Cc2nc3ccc([N+](=O)[O-])cc3c(=O)n2-c2ccc(OC)cc2OC)CC1`, the “hERG current change (%, negative = inhibition) at 10uM” value is on record as -46.1%.

Turning to `CS(=O)(=O)N1CCN(c2ccccc2NC(=O)c2cccnc2)CC1`, the “hERG current change (%, negative = inhibition) at 10uM” value was -22.9%.

Turning to `CCn1cc(CN2CCCC(C(=O)Nc3ccc(-c4nc5ccccc5[nH]4)cc3)C2)c(C)n1` (centres unmarked), the “hERG current change (%, negative = inhibition) at 10uM” value is -21%.

Regarding `CC(=O)N1CCN(S(=O)(=O)c2cccc(C(=O)OCC(=O)N3CC(=O)Nc4ccccc43)c2)CC1`, the “hERG current change (%, negative = inhibition) at 10uM” value worked out at 20.8%.

On to `Clc1cccc(Cl)c1-c1noc(CN2CCOCC2)n1`, for which the “hERG current change (%, negative = inhibition) at 10uM” value is listed as 11.1%.

For the compound `Fc1ccccc1CSc1nc2ccccc2[nH]1`, the “hERG current change (%, negative = inhibition) at 10uM” value is reported as -11.9%.

For the compound `Cc1nn2cc(-c3ccccc3)nc2[nH]c1=O`, the “hERG current change (%, negative = inhibition) at 10uM” value is listed as 27.9%.

For `COc1ccc(C2CC(=O)C3=C(C2)Nc2ccccc2N(C(=O)C2CC2)C3c2cccnc2)cc1OC` (centres unmarked), the “hERG current change (%, negative = inhibition) at 10uM” value was -13.3%.

For the compound `CCSc1ccccc1C(=O)N=C1NC(=O)CC2C(=O)NCCN12` (centres unmarked), the “hERG current change (%, negative = inhibition) at 10uM” value is recorded as 20.3%.

Consider `CC1CCCCC1NC(=O)CSc1nnc(CNC(=O)c2ccccc2)n1C` (centres unmarked), for which the “hERG current change (%, negative = inhibition) at 10uM” value is on record as -20.1%.

As to `O=C(NC(=S)Nc1ccc(S(=O)(=O)N2CCCC2)cc1)C1CCC1`, the “hERG current change (%, negative = inhibition) at 10uM” value was -5.64%.

For the compound `COc1ccc(CSc2nc3nc(C)cc(C)n3n2)cc1F`, the “hERG current change (%, negative = inhibition) at 10uM” value is -8.48%.

On to `COC(=O)CCC(=O)NC(=S)Nc1c(C)cccc1C`, for which the “hERG current change (%, negative = inhibition) at 10uM” value is reported as 1.38%.

Take `Cc1ccc(CN2C(=O)C(C)(C)Oc3ccc(C(=O)N4CCCCC4)cc32)cc1`: the “hERG current change (%, negative = inhibition) at 10uM” value is listed as -12.1%.

As to `Br.Cc1csc(=Nc2ccccc2)n1C`, the “hERG current change (%, negative = inhibition) at 10uM” value is reported as -2.07%.

As to `CS(=O)(=O)c1ccccc1C(=O)N(CCc1ccccc1)Cc1ccccc1`, the “hERG current change (%, negative = inhibition) at 10uM” value was -18%.

`COCCCNCCCCOc1ccc(C)cc1[N+](=O)[O-].O=C(O)C(=O)O`: the “hERG current change (%, negative = inhibition) at 10uM” value is on record as -26%.

For `Cc1ccccc1SCC(=O)N1CCN(c2ccc(C(F)(F)F)cn2)CC1`, the “hERG current change (%, negative = inhibition) at 10uM” value is given as -38%.

With `CCCCOC(=O)C(C#N)c1nc2ccccc2nc1N1CCN(Cc2ccc3c(c2)OCO3)CC1` (centres unmarked), the “hERG current change (%, negative = inhibition) at 10uM” value was -7.01%.

`CN1CCCCCC1=Nc1ccc([N+](=O)[O-])cc1.Cl`: the “hERG current change (%, negative = inhibition) at 10uM” value was -15.7%.

Take `Cc1ccc(C(=O)NCC(=O)NCC(=O)OCC(=O)c2cccs2)cc1`: the “hERG current change (%, negative = inhibition) at 10uM” value was 10.8%.
